Laboratory results published in the supplement of paper PMC8728848.
This is one part of the list.

Experiments:
Test in all cases: glycan array binding signal (z-score within array); higher = stronger binding
Conditions in all cases: glycan notation: IUPAC condensed, linker removed
[1] = molecular target: Neu5Ac(a2-6)Gal(b1-4)GlcNAc(b1-2)Man(a1-3)[Man(a1-6)]Man(b1-4)GlcNAc(b1-4)GlcNAc
Summary of the method: (§1)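 Arrays were curated from the Consortium for Functional Glycomics database, 3228 in total, and kept only where the protein sequence was available. Binding is expressed as a within-array Z-score. This score was averaged across arrays of the same protein sequence at different concentrations or buffers and across linkers, and negative values can be read as non-binding.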

[2] = molecular target: Neu5Ac(a2-6)Gal(b1-4)GlcNAc(b1-2)Man(a1-3)[Neu5Ac(a2-3)Gal(b1-4)GlcNAc(b1-2)Man(a1-6)]Man(b1-4)GlcNAc(b1-4)GlcNAc
Summary of the method: as §1

[3] = molecular target: Neu5Ac(a2-6)Gal(b1-4)GlcNAc(b1-2)Man(a1-3)[Neu5Ac(a2-6)Gal(b1-4)GlcNAc(b1-2)Man(a1-6)]Man(b1-4)GlcNAc(b1-4)GlcNAc
Summary of the method: as §1

[4] = molecular target: Neu5Ac(a2-6)Gal(b1-4)GlcNAc(b1-2)Man(a1-3)[Neu5Ac(a2-6)Gal(b1-4)GlcNAc(b1-2)Man(a1-6)]Man(b1-4)GlcNAc(b1-4)[Fuc(a1-6)]GlcNAc
Summary of the method: as §1

[5] = molecular target: Neu5Ac(a2-6)Gal(b1-4)GlcNAc(b1-2)Man(a1-6)Man(b1-4)GlcNAc(b1-4)GlcNAc
Summary of the method: as §1

[6] = molecular target: Neu5Ac(a2-6)Gal(b1-4)GlcNAc(b1-2)Man(a1-6)[Gal(b1-4)GlcNAc(b1-2)Man(a1-3)]Man(b1-4)GlcNAc(b1-4)GlcNAc
Summary of the method: as §1

[7] = molecular target: Neu5Ac(a2-6)Gal(b1-4)GlcNAc(b1-2)Man(a1-6)[GlcNAc(b1-2)Man(a1-3)]Man(b1-4)GlcNAc(b1-4)GlcNAc
Summary of the method: as §1

[8] = molecular target: Neu5Ac(a2-6)Gal(b1-4)GlcNAc(b1-2)Man(a1-6)[Man(a1-3)]Man(b1-4)GlcNAc(b1-4)GlcNAc
Summary of the method: as §1

[9] = molecular target: Neu5Ac(a2-6)Gal(b1-4)GlcNAc(b1-2)[Neu5Ac(a2-6)Gal(b1-4)GlcNAc(b1-4)]Man(a1-3)[GlcNAc(b1-4)][Neu5Ac(a2-6)Gal(b1-4)GlcNAc(b1-2)[Neu5Ac(a2-6)Gal(b1-4)GlcNAc(b1-6)]Man(a1-6)]Man(b1-4)GlcNAc(b1-4)GlcNAc
Summary of the method: as §1

[10] = molecular target: Neu5Ac(a2-6)Gal(b1-4)GlcNAc(b1-2)[Neu5Ac(a2-6)Gal(b1-4)GlcNAc(b1-4)]Man(a1-3)[GlcNAc(b1-4)][Neu5Ac(a2-6)Gal(b1-4)GlcNAc(b1-4)Man(a1-6)]Man(b1-4)GlcNAc(b1-4)GlcNAc
Summary of the method: as §1

[11] = molecular target: Neu5Ac(a2-6)Gal(b1-4)GlcNAc(b1-2)[Neu5Ac(a2-6)Gal(b1-4)GlcNAc(b1-6)]Man(a1-6)[Neu5Ac(a2-6)Gal(b1-4)GlcNAc(b1-2)Man(a1-3)][GlcNAc(b1-4)]Man(b1-4)GlcNAc(b1-4)GlcNAc
Summary of the method: as §1

[12] = molecular target: Neu5Ac(a2-6)Gal(b1-4)GlcNAc(b1-3)Gal(b1-3)GlcNAc
Summary of the method: as §1

[13] = molecular target: Neu5Ac(a2-6)Gal(b1-4)GlcNAc(b1-3)Gal(b1-4)GlcNAc
Summary of the method: as §1

[14] = molecular target: Neu5Ac(a2-6)Gal(b1-4)GlcNAc(b1-3)Gal(b1-4)GlcNAc(b1-2)Man(a1-3)[Neu5Ac(a2-6)Gal(b1-4)GlcNAc(b1-3)Gal(b1-4)GlcNAc(b1-2)Man(a1-6)]GalNAc
Summary of the method: as §1

[15] = molecular target: Neu5Ac(a2-6)Gal(b1-4)GlcNAc(b1-3)Gal(b1-4)GlcNAc(b1-3)Gal(b1-4)GlcNAc
Summary of the method: as §1

[16] = molecular target: Neu5Ac(a2-6)Gal(b1-4)GlcNAc(b1-3)Gal(b1-4)GlcNAc(b1-3)Gal(b1-4)GlcNAc(b1-2)Man(a1-3)[Neu5Ac(a2-6)Gal(b1-4)GlcNAc(b1-3)Gal(b1-4)GlcNAc(b1-3)Gal(b1-4)GlcNAc(b1-2)Man(a1-6)]GalNAc
Summary of the method: as §1

[17] = molecular target: Neu5Ac(a2-6)Gal(b1-4)GlcNAc(b1-3)Gal(b1-4)GlcNAc(b1-3)GalNAc
Summary of the method: as §1

[18] = molecular target: Neu5Ac(a2-6)Gal(b1-4)GlcNAc(b1-3)Gal(b1-4)GlcNAc(b1-3)[Neu5Ac(a2-6)Gal(b1-4)GlcNAc(b1-3)Gal(b1-4)GlcNAc(b1-6)]GalNAc
Summary of the method: as §1

[19] = molecular target: Neu5Ac(a2-6)Gal(b1-4)GlcNAc(b1-3)Gal(b1-4)GlcNAc(b1-6)[Gal(b1-3)]GalNAc
Summary of the method: as §1

[20] = molecular target: Neu5Ac(a2-6)Gal(b1-4)GlcNAc(b1-3)Gal(b1-4)[Fuc(a1-3)]GlcNAc(b1-3)Gal(b1-4)[Fuc(a1-3)]GlcNAc
Summary of the method: as §1

[21] = molecular target: Neu5Ac(a2-6)Gal(b1-4)GlcNAc(b1-3)GalNAc
Summary of the method: as §1

[22] = molecular target: Neu5Ac(a2-6)Gal(b1-4)GlcNAc(b1-3)[Neu5Ac(a2-6)Gal(b1-4)GlcNAc(b1-6)]GalNAc
Summary of the method: as §1

[23] = molecular target: Neu5Ac(a2-6)Gal(b1-4)GlcNAc(b1-6)GalNAc
Summary of the method: as §1

[24] = molecular target: Neu5Ac(a2-6)Gal(b1-4)GlcNAc(b1-6)[Gal(b1-3)GlcNAc(b1-3)]Gal(b1-4)Glc
Summary of the method: as §1

[25] = molecular target: Neu5Ac(a2-6)Gal(b1-4)GlcNAc(b1-6)[Gal(b1-3)]GalNAc
Summary of the method: as §1

[26] = molecular target: Neu5Ac(a2-6)Gal(b1-4)GlcNAc6S
Summary of the method: as §1

[27] = molecular target: Neu5Ac(a2-6)GalNAc
Summary of the method: as §1

[28] = molecular target: Neu5Ac(a2-6)GalNAc(b1-4)GlcNAc
Summary of the method: as §1

[29] = molecular target: Neu5Ac(a2-6)GalNAc(b1-4)GlcNAc6S
Summary of the method: as §1

[30] = molecular target: Neu5Ac(a2-6)GlcNAc(b1-4)GlcNAc
Summary of the method: as §1

[31] = molecular target: Neu5Ac(a2-6)GlcNAc(b1-4)GlcNAc(b1-4)GlcNAc
Summary of the method: as §1

B1: Si Bti9 1b-V5-his (Solanum lycopersicum) (protein)
chain: MQCNRGCDLALASFYVWRGSNLTLISEMFSTSIADIVSYNNRDNIPNQDSVIAGTRINIPFRCDCLNDGEVLGHAFPYRVKSGDTYDLVARNYSDLTTAQWMMKFNSYPENNIPNTVNLSVVVNCSCGNSDVSKDFGLFVTYPVRAEDNLTSVASAANVSEDIIRRYNPAAVSILDIGQGIIYIPGRDRNGNFPPLPTSTDGLSGGAKKGGRADPAFLYKVVINSKLEGKPIPNPLLGLDSTRTGHHHHHH
glycan array binding signal (z-score) [1]: -0.162 | glycan array binding signal (z-score) [2]: -0.229 | glycan array binding signal (z-score) [3]: -0.183 | glycan array binding signal (z-score) [4]: -0.231 | glycan array binding signal (z-score) [5]: -0.285 | glycan array binding signal (z-score) [6]: 0.366 | glycan array binding signal (z-score) [7]: -0.308 | glycan array binding signal (z-score) [8]: -0.417 | glycan array binding signal (z-score) [9]: -0.265 | glycan array binding signal (z-score) [10]: -0.221 | glycan array binding signal (z-score) [11]: -0.138 | glycan array binding signal (z-score) [12]: -0.134 | glycan array binding signal (z-score) [13]: -0.19 | glycan array binding signal (z-score) [14]: -0.01 | glycan array binding signal (z-score) [15]: -0.209 | glycan array binding signal (z-score) [16]: 0.306 | glycan array binding signal (z-score) [17]: -0.245 | glycan array binding signal (z-score) [18]: -0.059 | glycan array binding signal (z-score) [19]: -0.394 | glycan array binding signal (z-score) [20]: -0.309 | glycan array binding signal (z-score) [21]: -0.062 | glycan array binding signal (z-score) [22]: -0.17 | glycan array binding signal (z-score) [23]: -0.117 | glycan array binding signal (z-score) [24]: -0.248 | glycan array binding signal (z-score) [25]: -0.363 | glycan array binding signal (z-score) [26]: -0.172 | glycan array binding signal (z-score) [27]: -0.223 | glycan array binding signal (z-score) [28]: -0.368 | glycan array binding signal (z-score) [29]: -0.316 | glycan array binding signal (z-score) [30]: -0.289 | glycan array binding signal (z-score) [31]: -0.326
